Assay results as given in PMC12272085, “PRMT1 oligomerization regulates RNA-binding protein cascade to promote pancreatic cancer” (Life Science Alliance, 2025).

B1: human PRMT1 ([…]) Y280A (enzyme)
chain: not shown
notes: human PRMT1, […], single mutant; also called Y280A single mutant PRMT1; source: E. coli BL21 (DE3), purified (Ni-NTA, Strep-Tactin, SEC); not shown: His6-Sumo, N-terminal, cleaved
B2: human PRMT1 ([…]) H296A (enzyme)
chain: not shown
notes: human PRMT1, […], single mutant; also called H296A single mutant PRMT1; source: E. coli BL21 (DE3), purified (Ni-NTA, Strep-Tactin, SEC); not shown: His6-Sumo, N-terminal, cleaved

Molecular target: the molecule itself
Experiment: SEC; Superdex 200 Increase 10/300GL, 20 mM Tris pH 8.0, 150 mM NaCl, 2 mM DTT, 0.35 ml/min

Protein	stoichiometry N
B1	2
B2	2
